Results from US20200392253A1.

What was measured:
[1] = target: PDGF (CST, #8912) (UniProt P01127); experiment: bridging ELISA: capture PDGF, detection digoxygenin-Cy5 (signal needs both arms); exchange mix, input 1.3 µM; highest value = 100%
[2] = target: PDGF (CST, #8912) (UniProt P01127); experiment: bridging ELISA: capture PDGF, detection biocytinamid-Cy5 (signal needs both arms); exchange mix, input 1.3 µM; highest value = 100%

UniProt P01127, sequence (P01127 82-190): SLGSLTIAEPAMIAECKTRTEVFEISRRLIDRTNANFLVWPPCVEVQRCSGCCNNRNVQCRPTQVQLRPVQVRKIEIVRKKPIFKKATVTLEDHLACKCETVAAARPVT

- relative signal intensity [1]: 3%
- relative signal intensity [2]: 3%
B1: anti-bio/anti-fluos bispecific antibody from exchange of bio 2/3-IgG (MHCFcRP-knob-E357K) with fluos 2/3-IgG (MHCFcRP-hole-K370E) (bispecific antibody)
heavy 1: QVQLVQSGAEVKKPGSSVKVSCKSSGFNNKDTFFQWVRQAPGQGLEWMGRIDPANGFTKYAQKFQGRVTITADTSTSTAYMELSSLRSEDTAVYYCARWDTYGAAWFAYWGQGTLVTVSS[human IgG1 constant region with changes left out]
light 1: DIQMTQSPSSLSASVGDRVTITCRASGNIHNYLSWYQQKPGKVPKLLIYSAKTLADGVPSRFSGSGSGTDFTLTISSLQPEDVATYYCQHFWSSIYTFGQGTKLEIKRTVAAPSVFIFPPSDEQLKSGTASVVCLLNNFYPREAKVQWKVDNALQSGNSQESVTEQDSKDSTYSLSSTLTLSKADYEKHKVYACEVTHQGLSSPVTKSFNRGEC
heavy 2: GVKLDETGGGLVQPGGAMKLSCVTSGFTFGHYWMNWVRQSPEKGLEWVAQFRNKPYNYETYYSDSVKGRFTISRDDSKSSVYLQMNNLRVEDTGIYYCTGASYGMEYLGQGTSVTVSSASTKGPSVFPLAPSSKSTSGGTAALGCLVKDYFPEPVTVSWNSGALTSGVHTFPAVLQSSGLYSLSSVVTVPSSSLGTQTYICNVNHKPSNTKVDKKV[human IgG1 Fc with changes left out]
light 2: DIVMTQTPLSLSVTPGQPASISCKSSQSLVHSNGNTYLRWYLQKPGQSPKVLIYKVSNRVSGVPDRFSGSGSGTDFTLKISRVEAEDVGVYYCSQSTHVPWTFGQGTKLEIKRTVAAPSVFIFPPSDEQLKSGTASVVCLLNNFYPREAKVQWKVDNALQSGNSQESVTEQDSKDSTYSLSSTLTLSKADYEKHKVYACEVTHQGLSSPVTKSFNRGEC

- relative signal intensity [1]: 3.7%
- relative signal intensity [2]: 3.2%
B2: anti-fluos/anti-bio bispecific antibody from exchange of fluos 2/3-IgG (MHCFcRP-knob-E357K) with bio 2/3-IgG (MHCFcRP-hole-K370E) (bispecific antibody)
heavy 1: GVKLDETGGGLVQPGGAMKLSCVTSGFTFGHYWMNWVRQSPEKGLEWVAQFRNKPYNYETYYSDSVKGRFTISRDDSKSSVYLQMNNLRVEDTGIYYCTGASYGMEYLGQGTSVTVSS[human IgG1 constant region with changes left out]
light 1: B1 light 2
heavy 2: QVQLVQSGAEVKKPGSSVKVSCKSSGFNNKDTFFQWVRQAPGQGLEWMGRIDPANGFTKYAQKFQGRVTITADTSTSTAYMELSSLRSEDTAVYYCARWDTYGAAWFAYWGQGTLVTVSSASTKGPSVFPLAPSSKSTSGGTAALGCLVKDYFPEPVTVSWNSGALTSGVHTFPAVLQSSGLYSLSSVVTVPSSSLGTQTYICNVNHKPSNTKVDKKV[human IgG1 Fc with changes left out]
light 2: B1 light 1

One block for each binder: values may come before it.
